This is one part of the list. Binding of human transcription factors and regulators to the viral nucleoprotein by AlphaScreen, crude cell-free proteins, amounts not normalised, one pass. Fold of the Venus control; higher = more signal. No active / inactive call. Single-pass screen; sequences are the whole Swiss-Prot entries looked up by name.
B1: ASCL1, P50553 (protein)
chain: MESSAKMESGGAGQQPQPQPQQPFLPPAACFFATAAAAAAAAAAAAAQSAQQQQQQQQQQQQAPQLRPAADGQPSGGGHKSAPKQVKRQRSSSPELMRCKRRLNFSGFGYSLPQQQPAAVARRNERERNRVKLVNLGFATLREHVPNGAANKKMSKVETLRSAVEYIRALQQLLDEHDAVSAAFQAGVLSPTISPNYSNDLNSMAGSPVSSYSSDEGSYDPLSPEEQELLDFTNWF
B2: ZC3H8, Q8N5P1 (protein)
chain: MDFENLFSKPPNPALGKTATDSDERIDDEIDTEVEETQEEKIKLECEQIPKKFRHSAISPKSSLHRKSRSKDYDVYSDNDICSQESEDNFAKELQQYIQAREMANAAQPEESTKKEGVKDTPQAAKQKNKNLKAGHKNGKQKKMKRKWPGPGNKGSNALLRNSGSQEEDGKPKEKQQHLSQAFINQHTVERKGKQICKYFLERKCIKGDQCKFDHDAEIEKKKEMCKFYVQGYCTRGENCLYLHNEYPCKFYHTGTKCYQGEYCKFSHAPLTPETQELLAKVLDTEKKSCK
B3: DMRT2, Q9Y5R5 (protein)
chain: MADPQAGSAAGDWEIDVESLELEEDVCGAPRSTPPGPSPPPADGDCEDDEDDDGVDEDAEEEGDGEEAGASPGMPGQPEQRGGPQPRPPLAPQASPAGTGPRERCTPAGGGAEPRKLSRTPKCARCRNHGVVSCLKGHKRFCRWRDCQCANCLLVVERQRVMAAQVALRRQQATEDKKGLSGKQNNFERKAVYQRQVRAPSLLAKSILEGYRPIPAETYVGGTFPLPPPVSDRMRKRRAFADKELENIMLEREYKEREMLETSQAAALFLPNRMVPGPDYNSYKSAYSPSPVEPPSKDFCNFLPTCLDLTMQYSGSGNMELISSNVSVATTYRQYPLSSRFLVWPKCGPISDTLLYQQCLLNATTSVQALKPGASWDLKGARVQDGLSAEQDMMPSKLEGSLVLPHTPEIQTTRSDLQGHQAVPERSAFSPPRRNFSPIVDTDSLAAQGHVLTKISKENTRHPLPLRHNPFHSLFQQTLTDKSGPELKTPFVKEAFEETPKKHRECLVKDNQKYTFTIDRCAKDLFVAKQVGTKLSVNEPLSFSVESILKRPSSAITRVSQ
B4: TNFRSF4, P43489 (protein)
chain: MCVGARRLGRGPCAALLLLGLGLSTVTGLHCVGDTYPSNDRCCHECRPGNGMVSRCSRSQNTVCRPCGPGFYNDVVSSKPCKPCTWCNLRSGSERKQLCTATQDTVCRCRAGTQPLDSYKPGVDCAPCPPGHFSPGDNQACKPWTNCTLAGKHTLQPASNSSDAICEDRDPPATQPQETQGPPARPITVQPTEAWPRTSQGPSTRPVEVPGGRAVAAILGLGLVLGLLGPLAILLALYLLRRDQRLPPDAHKPPGGGSFRTPIQEEQADAHSTLAKI
B5: BARX1, Q9HBU1 (protein)
chain: MQRPGEPGAARFGPPEGCADHRPHRYRSFMIEEILTEPPGPKGAAPAAAAAAAGELLKFGVQALLAARPFHSHLAVLKAEQAAVFKFPLAPLGCSGLSSALLAAGPGLPGAAGAPHLPLELQLRGKLEAAGPGEPGTKAKKGRRSRTVFTELQLMGLEKRFEKQKYLSTPDRIDLAESLGLSQLQVKTWYQNRRMKWKKIVLQGGGLESPTKPKGRPKKNSIPTSEQLTEQERAKDAEKPAEVPGEPSDRSRED
B6: CEBPB, P17676 (protein)
chain: MQRLVAWDPACLPLPPPPPAFKSMEVANFYYEADCLAAAYGGKAAPAAPPAARPGPRPPAGELGSIGDHERAIDFSPYLEPLGAPQAPAPATATDTFEAAPPAPAPAPASSGQHHDFLSDLFSDDYGGKNCKKPAEYGYVSLGRLGAAKGALHPGCFAPLHPPPPPPPPPAELKAEPGFEPADCKRKEEAGAPGGGAGMAAGFPYALRAYLGYQAVPSGSSGSLSTSSSSSPPGTPSPADAKAPPTACYAGAAPAPSQVKSKAKKTVDKHSDEYKIRRERNNIAVRKSRDKAKMRNLETQHKVLELTAENERLQKKVEQLSRELSTLRNLFKQLPEPLLASSGHC
B7: GZF1, Q9H116 (protein)
chain: MESGAVLLESKSSPFNLLHEMHELRLLGHLCDVTVSVEYQGVRKDFMAHKAVLAATSKFFKEVFLNEKSVDGTRTNVYLNEVQVADFASFLEFVYTAKVQVEEDRVQRMLEVAEKLKCLDLSETCFQLKKQMLESVLLELQNFSESQEVEVSSGSQVSAAPAPRASVATDGPHPSGLTDSLDYPGERASNGMSSDLPPKKSKDKLDKKKEVVKPPYPKIRRASGRLAGRKVFVEIPKKKYTRRLREQQKTAEGDVGDYRCPQDQSPDRVGTEMEQVSKNEGCQAGAELEELSKKAGPEEEEEEEEEDEEGEKKKSNFKCSICEKAFLYEKSFLKHSKHRHGVATEVVYRCDTCGQTFANRCNLKSHQRHVHSSERHFPCELCGKKFKRKKDVKRHVLQVHEGGGERHRCGQCGKGLSSKTALRLHERTHTGDRPYGCTECGARFSQPSALKTHMRIHTGEKPFVCDECGARFTQNHMLIYHKRCHTGERPFMCETCGKSFASKEYLKHHNRIHTGSKPFKCEVCFRTFAQRNSLYQHIKVHTGERPYCCDQCGKQFTQLNALQRHRRIHTGERPFMCNACGRTFTDKSTLRRHTSIHDKNTPWKSFLVIVDGSPKNDDGHKTEQPDEEYVSSKLSDKLLSFAENGHFHNLAAVQDTVPTMQENSSADTACKADDSVVSQDTLLATTISELSELTPQTDSMPTQLHSLSNME
B8: ZNF83, P51522 (protein)
chain: MHGRKDDAQKQPVKNQLGLNPQSHLPELQLFQAEGKIYKYDHMEKSVNSSSLVSPPQRISSTVKTHISHTYECNFVDSLFTQKEKANIGTEHYKCSERGKAFHQGLHFTIHQIIHTKETQFKCDICGKIFNKKSNLASHQRIHTGEKPYKCNECGKVFHNMSHLAQHRRIHTGEKPYKCNECGKVFNQISHLAQHQRIHTGEKPYKCNECGKVFHQISHLAQHRTIHTGEKPYECNKCGKVFSRNSYLVQHLIIHTGEKPYRCNVCGKVFHHISHLAQHQRIHTGEKPYKCNECGKVFSHKSSLVNHWRIHTGEKPYKCNECGKVFSHKSSLVNHWRIHTGEKPYKCNECGKVFSRNSYLAQHLIIHAGEKPYKCDECDKAFSQNSHLVQHHRIHTGEKPYKCDECGKVFSQNSYLAYHWRIHTGEKAYKCNECGKVFGLNSSLAHHRKIHTGEKPFKCNECGKAFSMRSSLTNHHAIHTGEKHFKCNECGKLFRDNSYLVRHQRFHAGKKSNTCN
B9: GATAD2A, Q86YP4 (protein)
chain: MTEEACRTRSQKRALERDPTEDDVESKKIKMERGLLASDLNTDGDMRVTPEPGAGPTQGLLRATEATAMAMGRGEGLVGDGPVDMRTSHSDMKSERRPPSPDVIVLSDNEQPSSPRVNGLTTVALKETSTEALMKSSPEERERMIKQLKEELRLEEAKLVLLKKLRQSQIQKEATAQKPTGSVGSTVTTPPPLVRGTQNIPAGKPSLQTSSARMPGSVIPPPLVRGGQQASSKLGPQASSQVVMPPLVRGAQQIHSIRQHSSTGPPPLLLAPRASVPSVQIQGQRIIQQGLIRVANVPNTSLLVNIPQPTPASLKGTTATSAQANSTPTSVASVVTSAESPASRQAAAKLALRKQLEKTLLEIPPPKPPAPEMNFLPSAANNEFIYLVGLEEVVQNLLETQGRMSAATVLSREPYMCAQCKTDFTCRWREEKSGAIMCENCMTTNQKKALKVEHTSRLKAAFVKALQQEQEIEQRLLQQGTAPAQAKAEPTAAPHPVLKQVIKPRRKLAFRSGEARDWSNGAVLQASSQLSRGSATTPRGVLHTFSPSPKLQNSASATALVSRTGRHSERTVSAGKGSATSNWKKTPLSTGGTLAFVSPSLAVHKSSSAVDRQREYLLDMIPPRSIPQSATWK
B10: ARID3A, Q99856 (protein)
chain: MKLQAVMETLLQRQQRARQELEARQQLPPDPPAAPPGRARAAPDEDREPESARMQRAQMAALAAMRAAAAGLGHPASPGGSEDGPPGSEEEDAAREGTPGSPGRGREGPGEEHFEDMASDEDMKPKWEEEEMEEDLGEDEEEEEEDYEDEEEEEDEEGLGPPGPASLGTTALFPRKAQPPQAFRGDGVPRVLGGQERPGPGPAHPGGAAHVAPQLQPPDHGDWTYEEQFKQLYELDGDPKRKEFLDDLFSFMQKRGTPVNRIPIMAKQVLDLFMLYVLVTEKGGLVEVINKKLWREITKGLNLPTSITSAAFTLRTQYMKYLYPYECEKRGLSNPNELQAAIDSNRREGRRQSFGGSLFAYSPGGAHGMLSSPKLPVSSLGLAASTNGSSITPAPKIKKEEDSAIPITVPGRLPVSLAGHPVVAAQAAAVQAAAAQAAVAAQAAALEQLREKLESAEPPEKKMALVADEQQRLMQRALQQNFLAMAAQLPMSIRINSQASESRQDSAVNLTGTNGSNSISMSVEINGIMYTGVLFAQPPAPTPTSAPNKGGGGGGGSSSNAGGRGGNTGTSGGQAGPAGLSTPSTSTSNNSLP
B11: CNBP, P62633 (protein)
chain: MSSNECFKCGRSGHWARECPTGGGRGRGMRSRGRGGFTSDRGFQFVSSSLPDICYRCGESGHLAKDCDLQEDACYNCGRGGHIAKDCKEPKREREQCCYNCGKPGHLARDCDHADEQKCYSCGEFGHIQKDCTKVKCYRCGETGHVAINCSKTSEVNCYRCGESGHLARECTIEATA

What follows are binders tested against nucleoprotein N of Crimean-Congo hemorrhagic fever virus (assay: AlphaScreen luminescence signal relative to Venus negative control (fold); higher = stronger binding to CCHFV N).
Experimental: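 AlphaScreen binding of cell-free made, FLAG-GST-tagged human transcription factors and regulators (crude translation products) to biotinylated N protein; signal as fold of the FLAG-GST-Venus control. One pass.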

| Binder | AlphaScreen luminescence signal |
| --- | --- |
| B1 | 1.77 |
| B2 | 2.47 |
| B3 | 1.44 |
| B4 | 1.86 |
| B5 | 3.26 |
| B6 | 1.16 |
| B7 | 5.02 |
| B8 | 3.3 |
| B9 | 2.09 |
| B10 | 1.67 |
| B11 | 3.86 |
